According to PubChem BioAssay AID2147 (National Center for Advancing Translational Sciences (NCATS), 2009):
In all, about 230,000 compounds went through this assay and about 3,600 (1.6%) were called active. Inconclusive means that the source gave no clear call. Such entries were picked first, then a sample of the others. Calls come from the whole dose curve; as a rule, active = well fitted inhibition curve with a large enough effect (not every such curve was filed as active); inconclusive = small, poorly fitted or top-dose-only effect, or another doubt; inactive = no such curve, though single readings can be large or run the other way. Potencies of inconclusive entries are doubtful fits and often do not repeat.

Biological target: Lysine-specific demethylase 4E (Homo sapiens) (UniProt B2RXH2)
UniProt B2RXH2, sequence (B2RXH2 whole entry, looked up, the tested form may be a part): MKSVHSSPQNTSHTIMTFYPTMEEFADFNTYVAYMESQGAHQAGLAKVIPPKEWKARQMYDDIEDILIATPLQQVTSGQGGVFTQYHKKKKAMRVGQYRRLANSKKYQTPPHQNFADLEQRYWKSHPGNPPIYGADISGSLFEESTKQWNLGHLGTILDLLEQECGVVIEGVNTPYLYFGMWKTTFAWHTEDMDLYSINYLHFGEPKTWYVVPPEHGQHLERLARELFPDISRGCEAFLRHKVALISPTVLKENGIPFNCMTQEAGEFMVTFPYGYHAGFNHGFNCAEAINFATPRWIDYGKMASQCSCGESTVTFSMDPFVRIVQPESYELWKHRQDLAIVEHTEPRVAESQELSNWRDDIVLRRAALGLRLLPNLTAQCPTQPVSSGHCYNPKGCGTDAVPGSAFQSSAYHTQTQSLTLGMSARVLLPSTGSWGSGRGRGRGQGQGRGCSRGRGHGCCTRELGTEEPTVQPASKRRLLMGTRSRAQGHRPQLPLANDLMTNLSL
Test: qHTS Assay for Inhibitors of Human Jumonji Domain Containing 2E (JMJD2E)
Conditions: JMJD2E catalytic domain, FDH-coupled NADH fluorescence (FDH is formaldehyde dehydrogenase); series mostly up to 57.1 µM
Note: nearly all actives have a fitted effect of over 50% in size.
Potency is the fitted concentration of half-maximal effect; tags give direction and shape of the fitted curve.

SMILES	Potency
CC(=O)Nc1cc2c(cc1C(=O)C(C)C)OCCO2	inconclusive: 39.8 µM [inhibitor, single point]
O=C(NC(=S)NNC(=O)c1ccccc1O)c1ccco1	active: 7.08 µM
Cn1c(C(=O)NC2CCCCC2)cc2c(=O)n(C)c3ccccc3c21	inconclusive: 39.8 µM [inhibitor, single point]
COc1cc([N+](=O)[O-])cc(/C=N/NC(=O)CSc2nnc(-c3ccccc3)n2C)c1O	active: 20 µM
CC1=NOC(=O)/C1=C\c1ccc(-c2ccccc2Br)o1	inactive
Cc1cc(C)n(CC(O)CN2c3ccccc3Sc3ccccc32)n1 (configuration not stated)	inactive
Cc1cc(Br)c(NC(=O)COC(=O)C2CC2C)c(Br)c1 (configuration not stated)	inconclusive: 35.5 µM [inhibitor, single point]
O=S(=O)(Nc1cccnc1)c1cccc(C(F)(F)F)c1	inactive
CCOc1ccc(C(=O)N/N=C/c2cccc3cccnc23)cc1	inconclusive: 28.2 µM [inhibitor, single point]
Cc1ccc(S(=O)(=O)N(C)CC(=O)OCc2nnc(-c3ccccc3)o2)cc1	inactive
C=CCn1c(NS(=O)(=O)c2ccccc2)c(S(=O)(=O)c2ccc(C)cc2)c2nc3ccccc3nc21	inactive
COc1cc(C(=O)Nc2ccc(S(=O)(=O)N(C)c3ccccc3)cc2)cc(OC)c1OC	inconclusive: 8.91 µM [inhibitor, single point]
S=C(c1ccc(-c2cc(Cl)ccc2Cl)o1)N1CCOCC1	inactive
O=C(Cn1cnc2ccccc2c1=O)N1CCN(c2ccccc2)CC1	inactive
CN(C)/C=C(/C#N)C(=O)c1cccc(Oc2ccc(C(C)(C)C)cc2)c1	inactive
Cc1cccc(NCC(=O)c2c(N)n(C)c(=O)n(C)c2=O)c1C	inconclusive: 10 µM [inhibitor, partial curve]
COc1ccccc1CNc1nc(-c2ccc(N(C)C)cc2)nc2ccccc12	inconclusive: 31.6 µM [inhibitor, partial curve]
COc1cccc(O)c1O	active: 7.94 µM
Nc1nc(NCCCN2CCOCC2)nc(NCc2ccccc2)c1[N+](=O)[O-]	inconclusive: 39.8 µM [inhibitor, single point]
COc1cc(-c2nnc(-c3ccco3)o2)ccc1OCc1ccccc1	inconclusive: 31.6 µM [inhibitor, partial curve]
COc1cccc(-c2nnc3sc(-c4ccc(C)cc4)nn23)c1	inconclusive: 39.8 µM [inhibitor, single point]
COc1cccc(C(=O)NNC2=C(C(=O)C(F)(F)F)CCC2)c1	inconclusive: 28.2 µM [inhibitor, single point]
CCCCOc1ccc(C(=O)CCN2CCCCC2)cc1	inactive
O=C(Nc1nc2ccccc2n1CCOc1ccc(Cl)cc1)c1ccco1	inconclusive: 35.5 µM [inhibitor, single point]
COc1ccc(/C=N/Nc2ncnc(Cl)c2N)cc1OC	inactive
O=C(N/N=C/c1ccccc1OC(F)F)NC1CCCCC1	inconclusive: 39.8 µM [inhibitor, single point]

SMILES	Potency
Cc1cc(C)c(C(N)=O)c(NCCc2ccccc2)n1	inconclusive: 28.2 µM [inhibitor, partial curve]
CCOc1cccc2cc(C(=O)Nc3ccccc3-c3ccccc3)c(=O)oc12	inactive
O=C1CCCC2=C1C1(CCCC1)N=C(Nc1nc3ccccc3s1)N2	inconclusive: 22.4 µM [inhibitor, partial curve]
Cc1cc2ncn(/N=C/c3ccc4c(c3)OCO4)c2cc1C	inconclusive: 35.5 µM [inhibitor, single point]
C#CC(CC)(CC)NC(=O)Nc1ccccc1C(=O)OC	inconclusive: 28.2 µM [inhibitor, partial curve]
COc1nc(N)c(S(=O)(=O)c2ccccc2)cc1C#N	inconclusive: 39.8 µM [inhibitor, single point]
CCCCNC(=O)c1cc2cc(CC)ccc2[nH]1	inconclusive: 12.6 µM [inhibitor, partial curve]
Cc1nn(Cc2ccc(F)cc2)c2sc(C(=O)Nc3nccs3)cc12	inconclusive: 35.5 µM [inhibitor, single point]
CCC(=O)OCCNc1cc(Sc2nccn2C)c2nonc2c1[N+](=O)[O-]	inactive
O=C(CSc1nnc(-c2cccs2)n1-c1ccccc1)Nc1ccccc1	inconclusive: 25.1 µM [inhibitor, single point]
CCCCn1c(=O)c(C(=O)OCC)c(O)c2ccccc21	inconclusive: 8.91 µM [inhibitor, partial curve]
COc1cccc(OC(C)c2ccnc3nc(/N=C/N(C)C)nn23)c1 (configuration not stated)	inconclusive: 35.5 µM [inhibitor, single point]
Cc1cc(C)c2[nH]c(=O)c(C(c3nnnn3Cc3ccc4c(c3)OCO4)N3CCCC3)cc2c1 (configuration not stated)	inconclusive: 25.1 µM [inhibitor, single point]
COc1ccc(C(=O)OC/C(O)=C(\C#N)c2nc3ccccc3[nH]2)cc1S(=O)(=O)N1CCOCC1	inactive
COCCCn1c(SCc2ccccc2)nc2cc(OC)c(OC)cc2c1=N	inconclusive: 28.2 µM [inhibitor, single point]
CN(C)c1ccc(/C=N/NC(=O)c2sccc2-n2cccc2)cc1	inactive
CCc1ccccc1NCC(=O)Nc1ccc(Cl)c(C(F)(F)F)c1	inactive
O=C(Nc1nnc(C2CC2)s1)c1cccnc1Oc1ccc(Cl)cc1	inconclusive: 39.8 µM [inhibitor, single point]
CCN(CC)CCn1c(=S)[nH]c2ncccc2c1=O	inconclusive: 25.1 µM [inhibitor, single point]
O=C(O)c1sccc1S(=O)(=O)Nc1ccc(Cl)cc1	inactive
CCOc1ccccc1NC(=O)C(Sc1nnnn1C)c1ccccc1 (configuration not stated)	inactive
O=C(O)C[C@@H]1C(=O)O[C@@H]2C(COC(=O)c3cc(O)c(O)c(O)c3)O[C@@H](OC(=O)c3cc(O)c(O)c(O)c3)[C@@H](OC(=O)c3cc(O)c(O)c4c3[C@H]1[C@H](O)C(=O)O4)[C@H]2OC(=O)c1cc(O)c(O)c(O)c1 (some centres not stated)	active: 0.708 µM
COCCNC(=O)c1nn2cccnc2c1Cl	inactive
CCc1nnc(SCc2ccc(OC)c(Br)c2)n1N	inactive
CCOCCCNC(=O)CN1C(=O)/C(=C\c2ccc(C)cc2)Sc2ccccc21	inconclusive: 35.5 µM [inhibitor, single point]
Cc1ccc([C@H]2C(C#N)=C(N)Oc3cc(C)oc(=O)c32)o1	inconclusive: 31.6 µM [inhibitor, single point]

SMILES	Potency
COc1ccccc1-c1cc(C(F)(F)F)n2ncc(S(=O)(=O)c3ccccc3)c2n1	inconclusive: 28.2 µM [inhibitor, partial curve]
Cc1nccc(-c2cccc(NC(=O)Nc3ccc(Cl)cc3)c2)n1	inactive
Cc1ccc(CNC(=O)C2CNc3cc(C)ccc3O2)cc1 (configuration not stated)	inactive
O=C(Nc1nnc(-c2ccccc2Cl)o1)c1cccnc1	inconclusive: 35.5 µM [inhibitor, single point]
O=S(=O)(N/N=C\C=C\c1ccccc1)c1ccc(Br)cc1	inactive
CN(C)C(=O)COc1ccc(Oc2ccccc2)cc1	inactive
Cc1c2ccccc2nc2c(F)c(NC(C)C)c(F)c(F)c12	inconclusive: 35.5 µM [inhibitor, single point]
CCc1cc(C(=O)c2ccccc2OC)c(N)s1	inactive
CCC(Oc1ccccc1)C(=O)Nc1ncc([N+](=O)[O-])s1 (configuration not stated)	inactive
Cc1nc(C)c(-c2csc(NCc3ccco3)n2)s1	inconclusive: 35.5 µM [inhibitor, single point]
CCCCn1c(N)c(NCCC)c(=O)[nH]c1=O	inconclusive: 35.5 µM [inhibitor, single point]
COCCCNCCCCSc1ccc(Cl)cc1	inconclusive: 39.8 µM [inhibitor, single point]
CCCC(=O)NC(c1ccc(OC)cc1)c1ccc2cccnc2c1O (configuration not stated)	active: 22.4 µM
CCOC(=O)COc1cc(N2C(=O)CSCC2=O)c(Cl)cc1Cl	inactive
Fc1ccc(-n2ncc3c(SCc4cccnc4)ncnc32)cc1	inconclusive: 39.8 µM [inhibitor, single point]
O=C1CC(=O)N(c2ccccc2)c2ccccc21	inactive
O=C(CSc1nc2c(c(=O)n1-c1ccc(Cl)cc1)SCC2)Nc1nccs1	inconclusive: 39.8 µM [inhibitor, single point]
Cc1cc(Cl)ccc1OCC(=O)NCCOc1nc(N2CCOCC2)nc(N2CCOCC2)n1	inconclusive: 39.8 µM [inhibitor, single point]
CCOC(=O)C(C)Oc1cccc2c(=O)n(CC(=O)Nc3ccc4c(c3)OCCO4)ccc12 (configuration not stated)	inconclusive: 39.8 µM [inhibitor, single point]
Cc1cc(N2CCC(C)CC2)n2ncc(-c3ccccc3)c2n1	inconclusive: 28.2 µM [inhibitor, partial curve]
O=C1C2CC=C(Cl)CC2C(=O)N1CC1Cc2ccccc2CO1 (configuration not stated)	inactive
CSC1=NSC2=NC(=O)/C(=C\c3coc4ccccc4c3=O)C(=N)N12	inconclusive: 31.6 µM [inhibitor, partial curve]
Cc1nc2scc(-c3cccs3)c2c(=O)n1CC(=O)O	inconclusive: 31.6 µM [inhibitor, single point]
Cc1cc(/C=N/NC(=O)C(=O)NCc2ccccn2)c(C)n1-c1ccccc1	inactive
O=C(Nc1ccccc1C(=O)NCc1ccco1)Nc1cccc2ccccc12	inconclusive: 31.6 µM [inhibitor, partial curve]
